Measurements reported in the supplement of paper PMC8728848.
Some of the results follow.

Legend:
Assay in all cases: glycan array binding signal (z-score within array); higher = stronger binding
Conditions in all cases: glycan notation: IUPAC condensed, linker removed
[1] = biological target: Gal(b1-3)[Neu5Ac(a2-6)]GlcNAc(b1-4)Gal(b1-4)Glc
Procedure, shortened: (§1)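 Glycan array binding is given as a within-array Z-score, which can be read as non-binding when negative. The arrays, 3228 of them, came from the Consortium for Functional Glycomics database and were retained only where the protein sequence was available. Z-scores were averaged across arrays of the same protein sequence at different concentrations or buffers and across linkers.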

[2] = biological target: Gal(b1-3)[Neu5Ac(a2-6)]GlcNAc(b1-6)Gal(b1-4)Glc
Procedure, shortened: as §1

[3] = biological target: Gal(b1-3)[Neu5Ac(b2-6)]GalNAc
Procedure, shortened: as §1

[4] = biological target: Gal(b1-4)Gal
Procedure, shortened: as §1

[5] = biological target: Gal(b1-4)GalNAc(a1-3)[Fuc(a1-2)]Gal(b1-4)GlcNAc
Procedure, shortened: as §1

[6] = biological target: Gal(b1-4)GalNAc(b1-3)[Fuc(a1-2)]Gal(b1-4)GlcNAc
Procedure, shortened: as §1

[7] = biological target: Gal(b1-4)Glc
Procedure, shortened: as §1

[8] = biological target: Gal(b1-4)Glc6S
Procedure, shortened: as §1

[9] = biological target: Gal(b1-4)GlcNAc
Procedure, shortened: as §1

[10] = biological target: Gal(b1-4)GlcNAc(a1-6)Gal(b1-4)GlcNAc
Procedure, shortened: as §1

[11] = biological target: Gal(b1-4)GlcNAc(b1-2)Man
Procedure, shortened: as §1

[12] = biological target: Gal(b1-4)GlcNAc(b1-2)Man(a1-3)Man(b1-4)GlcNAc(b1-4)GlcNAc
Procedure, shortened: as §1

[13] = biological target: Gal(b1-4)GlcNAc(b1-2)Man(a1-3)[Gal(b1-4)GlcNAc(b1-2)Man(a1-6)]Man(b1-4)GlcNAc(b1-4)GlcNAc
Procedure, shortened: as §1

[14] = biological target: Gal(b1-4)GlcNAc(b1-2)Man(a1-3)[Gal(b1-4)GlcNAc(b1-2)Man(a1-6)]Man(b1-4)GlcNAc(b1-4)[Fuc(a1-6)]GlcNAc
Procedure, shortened: as §1

[15] = biological target: Gal(b1-4)GlcNAc(b1-2)Man(a1-3)[Gal(b1-4)GlcNAc(b1-2)Man(a1-6)][Gal(b1-4)GlcNAc(b1-4)]Man(b1-4)GlcNAc(b1-4)[Fuc(a1-6)]GlcNAc
Procedure, shortened: as §1

[16] = biological target: Gal(b1-4)GlcNAc(b1-2)Man(a1-3)[Gal(b1-4)GlcNAc(b1-2)Man(a1-6)][GlcNAc(b1-4)]Man(b1-4)GlcNAc(b1-4)[Fuc(a1-6)]GlcNAc
Procedure, shortened: as §1

[17] = biological target: Gal(b1-4)GlcNAc(b1-2)Man(a1-3)[GlcNAc(b1-2)Man(a1-6)]Man(b1-4)GlcNAc(b1-4)GlcNAc
Procedure, shortened: as §1

[18] = biological target: Gal(b1-4)GlcNAc(b1-2)Man(a1-3)[GlcNAc(b1-4)][Gal(b1-4)GlcNAc(b1-2)Man(a1-6)]Man(b1-4)GlcNAc(b1-4)GlcNAc
Procedure, shortened: as §1

[19] = biological target: Gal(b1-4)GlcNAc(b1-2)Man(a1-3)[Man(a1-6)]Man(b1-4)GlcNAc(b1-4)GlcNAc
Procedure, shortened: as §1

[20] = biological target: Gal(b1-4)GlcNAc(b1-2)Man(a1-6)Man(b1-4)GlcNAc(b1-4)GlcNAc
Procedure, shortened: as §1

[21] = biological target: Gal(b1-4)GlcNAc(b1-2)Man(a1-6)[GlcNAc(b1-2)Man(a1-3)]Man(b1-4)GlcNAc(b1-4)GlcNAc
Procedure, shortened: as §1

[22] = biological target: Gal(b1-4)GlcNAc(b1-2)Man(a1-6)[Man(a1-3)]Man(b1-4)GlcNAc(b1-4)GlcNAc
Procedure, shortened: as §1

[23] = biological target: Gal(b1-4)GlcNAc(b1-2)[Gal(b1-4)GlcNAc(b1-4)]Man(a1-3)[Gal(b1-4)GlcNAc(b1-2)Man(a1-6)]Man(b1-4)GlcNAc(b1-4)GlcNAc
Procedure, shortened: as §1

[24] = biological target: Gal(b1-4)GlcNAc(b1-2)[Gal(b1-4)GlcNAc(b1-4)]Man(a1-3)[Gal(b1-4)GlcNAc(b1-2)[Gal(b1-4)GlcNAc(b1-6)]Man(a1-6)]Man(b1-4)GlcNAc(b1-4)GlcNAc
Procedure, shortened: as §1

[25] = biological target: Gal(b1-4)GlcNAc(b1-2)[Gal(b1-4)GlcNAc(b1-4)]Man(a1-3)[GlcNAc(b1-4)][Gal(b1-4)GlcNAc(b1-2)Man(a1-6)]Man(b1-4)GlcNAc(b1-4)GlcNAc
Procedure, shortened: as §1

[26] = biological target: Gal(b1-4)GlcNAc(b1-2)[Gal(b1-4)GlcNAc(b1-4)]Man(a1-3)[GlcNAc(b1-4)][Gal(b1-4)GlcNAc(b1-2)[Gal(b1-4)GlcNAc(b1-6)]Man(a1-6)]Man(b1-4)GlcNAc(b1-4)GlcNAc
Procedure, shortened: as §1

[27] = biological target: Gal(b1-4)GlcNAc(b1-2)[Gal(b1-4)GlcNAc(b1-6)]Man(a1-6)[Gal(b1-4)GlcNAc(b1-2)Man(a1-3)]Man(b1-4)GlcNAc(b1-4)GlcNAc
Procedure, shortened: as §1

[28] = biological target: Gal(b1-4)GlcNAc(b1-2)[Gal(b1-4)GlcNAc(b1-6)]Man(a1-6)[Gal(b1-4)GlcNAc(b1-2)Man(a1-3)]Man(b1-4)GlcNAc(b1-4)[Fuc(a1-6)]GlcNAc
Procedure, shortened: as §1

[29] = biological target: Gal(b1-4)GlcNAc(b1-2)[Gal(b1-4)GlcNAc(b1-6)]Man(a1-6)[GlcNAc(b1-4)][Gal(b1-4)GlcNAc(b1-2)Man(a1-3)]Man(b1-4)GlcNAc(b1-4)GlcNAc
Procedure, shortened: as §1

[30] = biological target: Gal(b1-4)GlcNAc(b1-2)[Gal(b1-4)GlcNAc(b1-6)]Man(a1-6)[GlcNAc(b1-4)][Gal(b1-4)GlcNAc(b1-2)[Gal(b1-4)GlcNAc(b1-4)]Man(a1-3)]Man(b1-4)GlcNAc(b1-4)[Fuc(a1-6)]GlcNAc
Procedure, shortened: as §1

[31] = biological target: Gal(b1-4)GlcNAc(b1-3)Gal(b1-3)GalNAc
Procedure, shortened: as §1

[32] = biological target: Gal(b1-4)GlcNAc(b1-3)Gal(b1-3)GlcNAc
Procedure, shortened: as §1

[33] = biological target: Gal(b1-4)GlcNAc(b1-3)Gal(b1-4)Glc
Procedure, shortened: as §1

[34] = biological target: Gal(b1-4)GlcNAc(b1-3)Gal(b1-4)GlcNAc
Procedure, shortened: as §1

[35] = biological target: Gal(b1-4)GlcNAc(b1-3)Gal(b1-4)GlcNAc(b1-2)Man(a1-3)[Gal(b1-4)GlcNAc(b1-3)Gal(b1-4)GlcNAc(b1-2)Man(a1-6)]Man(b1-4)GlcNAc(b1-4)GlcNAc
Procedure, shortened: as §1

[36] = biological target: Gal(b1-4)GlcNAc(b1-3)Gal(b1-4)GlcNAc(b1-2)Man(a1-3)[Gal(b1-4)GlcNAc(b1-3)Gal(b1-4)GlcNAc(b1-2)Man(a1-6)]Man(b1-4)GlcNAc(b1-4)[Fuc(a1-6)]GlcNAc
Procedure, shortened: as §1

[37] = biological target: Gal(b1-4)GlcNAc(b1-3)Gal(b1-4)GlcNAc(b1-2)[Gal(b1-4)GlcNAc(b1-3)Gal(b1-4)GlcNAc(b1-6)]Man(a1-6)[Gal(b1-4)GlcNAc(b1-3)Gal(b1-4)GlcNAc(b1-2)Man(a1-3)]Man(b1-4)GlcNAc(b1-4)GlcNAc
Procedure, shortened: as §1

[38] = biological target: Gal(b1-4)GlcNAc(b1-3)Gal(b1-4)GlcNAc(b1-2)[Gal(b1-4)GlcNAc(b1-3)Gal(b1-4)GlcNAc(b1-6)]Man(a1-6)[Gal(b1-4)GlcNAc(b1-3)Gal(b1-4)GlcNAc(b1-2)Man(a1-3)]Man(b1-4)GlcNAc(b1-4)[Fuc(a1-6)]GlcNAc
Procedure, shortened: as §1

[39] = biological target: Gal(b1-4)GlcNAc(b1-3)Gal(b1-4)GlcNAc(b1-3)Gal(b1-4)GlcNAc
Procedure, shortened: as §1

[40] = biological target: Gal(b1-4)GlcNAc(b1-3)Gal(b1-4)GlcNAc(b1-3)Gal(b1-4)GlcNAc(b1-2)Man(a1-3)[Gal(b1-4)GlcNAc(b1-3)Gal(b1-4)GlcNAc(b1-3)Gal(b1-4)GlcNAc(b1-2)Man(a1-6)]Man(b1-4)GlcNAc(b1-4)GlcNAc
Procedure, shortened: as §1

[41] = biological target: Gal(b1-4)GlcNAc(b1-3)Gal(b1-4)GlcNAc(b1-3)Gal(b1-4)GlcNAc(b1-2)Man(a1-3)[Gal(b1-4)GlcNAc(b1-3)Gal(b1-4)GlcNAc(b1-3)Gal(b1-4)GlcNAc(b1-2)Man(a1-6)]Man(b1-4)GlcNAc(b1-4)[Fuc(a1-6)]GlcNAc
Procedure, shortened: as §1

[42] = biological target: Gal(b1-4)GlcNAc(b1-3)Gal(b1-4)GlcNAc(b1-3)Gal(b1-4)GlcNAc(b1-2)[Gal(b1-4)GlcNAc(b1-3)Gal(b1-4)GlcNAc(b1-3)Gal(b1-4)GlcNAc(b1-6)]Man(a1-6)[Gal(b1-4)GlcNAc(b1-3)Gal(b1-4)GlcNAc(b1-3)Gal(b1-4)GlcNAc(b1-2)Man(a1-3)]Man(b1-4)GlcNAc(b1-4)[Fuc(a1-6)]GlcNAc
Procedure, shortened: as §1

[43] = biological target: Gal(b1-4)GlcNAc(b1-3)Gal(b1-4)GlcNAc(b1-3)Gal(b1-4)GlcNAc(b1-3)Gal(b1-4)GlcNAc(b1-2)Man(a1-3)[Gal(b1-4)GlcNAc(b1-3)Gal(b1-4)GlcNAc(b1-3)Gal(b1-4)GlcNAc(b1-3)Gal(b1-4)GlcNAc(b1-2)Man(a1-6)]Man(b1-4)GlcNAc(b1-4)GlcNAc
Procedure, shortened: as §1

[44] = biological target: Gal(b1-4)GlcNAc(b1-3)Gal(b1-4)GlcNAc(b1-3)Gal(b1-4)GlcNAc(b1-3)Gal(b1-4)GlcNAc(b1-2)Man(a1-3)[Gal(b1-4)GlcNAc(b1-3)Gal(b1-4)GlcNAc(b1-3)Gal(b1-4)GlcNAc(b1-3)Gal(b1-4)GlcNAc(b1-2)Man(a1-6)]Man(b1-4)GlcNAc(b1-4)[Fuc(a1-6)]GlcNAc
Procedure, shortened: as §1

[45] = biological target: Gal(b1-4)GlcNAc(b1-3)Gal(b1-4)GlcNAc(b1-3)Gal(b1-4)GlcNAc(b1-3)Gal(b1-4)GlcNAc(b1-2)[Gal(b1-4)GlcNAc(b1-3)Gal(b1-4)GlcNAc(b1-3)Gal(b1-4)GlcNAc(b1-3)Gal(b1-4)GlcNAc(b1-6)]Man(a1-6)[Gal(b1-4)GlcNAc(b1-3)Gal(b1-4)GlcNAc(b1-3)Gal(b1-4)GlcNAc(b1-3)Gal(b1-4)GlcNAc(b1-2)Man(a1-3)]Man(b1-4)GlcNAc(b1-4)[Fuc(a1-6)]GlcNAc
Procedure, shortened: as §1

B1: ABA (Agaricus bisporus), Q00022 (protein)
chain: MTYTISIRVYQTTPKGFFRPVERTNWKYANGGTWDEVRGEYVLTMGGSGTSGSLRFVSSDTDESFVATFGVHNYKRWCDIVTNLTNEQTALVINQEYYGVPIRDQARENQLTSYNVANAKGRRFAIEYTVTEGDNLKANLIIG
[1]
  glycan array binding signal (z-score): -0.284
[2]
  glycan array binding signal (z-score): -0.174
[3]
  glycan array binding signal (z-score): -0.241
[4]
  glycan array binding signal (z-score): -0.183
[5]
  glycan array binding signal (z-score): -0.224
[6]
  glycan array binding signal (z-score): -0.227
[7]
  glycan array binding signal (z-score): -0.163
[8]
  glycan array binding signal (z-score): -0.203
[9]
  glycan array binding signal (z-score): -0.244
[10]
  glycan array binding signal (z-score): -0.242
[11]
  glycan array binding signal (z-score): -0.184
[12]
  glycan array binding signal (z-score): -0.264
[13]
  glycan array binding signal (z-score): -0.25
[14]
  glycan array binding signal (z-score): -0.215
[15]
  glycan array binding signal (z-score): -0.258
[16]
  glycan array binding signal (z-score): -0.279
[17]
  glycan array binding signal (z-score): 1.03
[18]
  glycan array binding signal (z-score): -0.224
[19]
  glycan array binding signal (z-score): -0.26
[20]
  glycan array binding signal (z-score): -0.21
[21]
  glycan array binding signal (z-score): 2.81
[22]
  glycan array binding signal (z-score): -0.241
[23]
  glycan array binding signal (z-score): -0.248
[24]
  glycan array binding signal (z-score): -0.269
[25]
  glycan array binding signal (z-score): -0.25
[26]
  glycan array binding signal (z-score): -0.241
[27]
  glycan array binding signal (z-score): -0.037
[28]
  glycan array binding signal (z-score): -0.241
[29]
  glycan array binding signal (z-score): -0.226
[30]
  glycan array binding signal (z-score): -0.207
[31]
  glycan array binding signal (z-score): 0.026
[32]
  glycan array binding signal (z-score): -0.238
[33]
  glycan array binding signal (z-score): -0.194
[34]
  glycan array binding signal (z-score): -0.235
[35]
  glycan array binding signal (z-score): 2.52
[36]
  glycan array binding signal (z-score): -0.173
[37]
  glycan array binding signal (z-score): -0.136
[38]
  glycan array binding signal (z-score): -0.207
[39]
  glycan array binding signal (z-score): -0.252
[40]
  glycan array binding signal (z-score): 1.89
[41]
  glycan array binding signal (z-score): -0.291
[42]
  glycan array binding signal (z-score): -0.245
[43]
  glycan array binding signal (z-score): -0.273
[44]
  glycan array binding signal (z-score): -0.279
[45]
  glycan array binding signal (z-score): -0.269
